# Laboratory results published in the supplement of paper PMC8728848.
# The list shows a part of the results.
# Assays:
# Assay in all cases: glycan array binding signal (z-score within array); higher = stronger binding
# Details in all cases: glycan notation: IUPAC condensed, linker removed
# [1] = target: Fuc(a1-2)[GalNAc(a1-3)]Gal(b1-4)GlcNAc(b1-3)Gal(b1-4)GlcNAc
# Procedure, shortened: (§1)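 Columns mapping to the same glycan were averaged after glycan names were converted to IUPAC-condensed notation. The data come from 3228 arrays in the Consortium for Functional Glycomics database, limited to those with an available protein sequence. Binding is reported as a within-array Z-score averaged across arrays of one protein sequence and across linkers.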
# [2] = target: Fuc(a1-2)[GalNAc(a1-3)]Gal(b1-4)GlcNAc(b1-3)Gal(b1-4)GlcNAc(b1-3)Gal(b1-4)GlcNAc
# Procedure, shortened: as §1
# [3] = target: Fuc(a1-2)[GalNAc(a1-3)]Gal(b1-4)[Fuc(a1-3)]GlcNAc
# Procedure, shortened: as §1
# [4] = target: Fuc(a1-2)[GalNAc(a1-4)]Gal(b1-4)GlcNAc
# Procedure, shortened: as §1
# [5] = target: Fuc(a1-2)[GalNAc(b1-3)]Gal
# Procedure, shortened: as §1
# Fuc(a1-3)GlcNAc = target: Fuc(a1-3)GlcNAc
# Procedure, shortened: as §1
# [6] = target: Fuc(a1-3)[Gal(b1-4)]Glc6S
# Procedure, shortened: as §1
# [7] = target: Fuc(a1-3)[Gal(b1-4)]GlcNAc
# Procedure, shortened: as §1
# [8] = target: Fuc(a1-3)[Gal(b1-4)]GlcNAc(b1-2)Man(a1-3)[Fuc(a1-3)[Gal(b1-4)]GlcNAc(b1-2)Man(a1-6)]Man(b1-4)GlcNAc(b1-4)GlcNAc
# Procedure, shortened: as §1
# [9] = target: Fuc(a1-3)[Gal(b1-4)]GlcNAc(b1-3)Gal(b1-3)[Fuc(a1-4)]GlcNAc
# Procedure, shortened: as §1
# [10] = target: Fuc(a1-3)[Gal(b1-4)]GlcNAc(b1-3)GalNAc
# Procedure, shortened: as §1
# [11] = target: Fuc(a1-3)[Gal(b1-4)]GlcNAc(b1-4)Gal(b1-4)[Fuc(a1-3)]GlcNAc
# Procedure, shortened: as §1
# [12] = target: Fuc(a1-3)[Gal(b1-4)]GlcNAc(b1-4)Gal(b1-4)[Fuc(a1-3)]GlcNAc(b1-4)Gal(b1-4)[Fuc(a1-3)]GlcNAc
# Procedure, shortened: as §1
# [13] = target: Fuc(a1-3)[Gal(b1-4)]GlcNAc(b1-6)[Gal(b1-3)GlcNAc(b1-3)]Gal(b1-4)Glc
# Procedure, shortened: as §1
# [14] = target: Fuc(a1-3)[Gal(b1-4)]GlcNAc6S
# Procedure, shortened: as §1
# [15] = target: Fuc(a1-3)[Gal3S(b1-4)]GlcNAc
# Procedure, shortened: as §1
# [16] = target: Fuc(a1-3)[Gal3S(b1-4)]GlcNAc6S
# Procedure, shortened: as §1
# [17] = target: Fuc(a1-3)[GalNAc(b1-4)]GlcNAc
# Procedure, shortened: as §1
# Fuc(a1-4)GlcNAc = target: Fuc(a1-4)GlcNAc
# Procedure, shortened: as §1
# Fuc(b1-3)GlcNAc = target: Fuc(b1-3)GlcNAc
# Procedure, shortened: as §1
# Gal(a1-2)Gal = target: Gal(a1-2)Gal
# Procedure, shortened: as §1
# Gal(a1-3)Gal = target: Gal(a1-3)Gal
# Procedure, shortened: as §1
# Gal(a1-3)Gal(b1-3)GlcNAc = target: Gal(a1-3)Gal(b1-3)GlcNAc
# Procedure, shortened: as §1
# [18] = target: Gal(a1-3)Gal(b1-3)GlcNAc(b1-2)Man(a1-3)[Gal(a1-3)Gal(b1-3)GlcNAc(b1-2)Man(a1-6)]Man(b1-4)GlcNAc(b1-4)GlcNAc
# Procedure, shortened: as §1
# [19] = target: Gal(a1-3)Gal(b1-3)[Fuc(a1-4)]GlcNAc(b1-2)Man(a1-3)[Gal(a1-3)Gal(b1-3)[Fuc(a1-4)]GlcNAc(b1-2)Man(a1-6)]Man(b1-4)GlcNAc(b1-4)GlcNAc
# Procedure, shortened: as §1
# Gal(a1-3)Gal(b1-4)Glc = target: Gal(a1-3)Gal(b1-4)Glc
# Procedure, shortened: as §1
# Gal(a1-3)Gal(b1-4)GlcNAc = target: Gal(a1-3)Gal(b1-4)GlcNAc
# Procedure, shortened: as §1
# [20] = target: Gal(a1-3)Gal(b1-4)GlcNAc(b1-3)GalNAc
# Procedure, shortened: as §1
# [21] = target: Gal(a1-3)Gal(b1-4)[Fuc(a1-3)]GlcNAc
# Procedure, shortened: as §1
# [22] = target: Gal(a1-3)Gal(b1-4)[Fuc(a1-3)]GlcNAc(b1-2)Man(a1-3)[Gal(a1-3)Gal(b1-4)[Fuc(a1-3)]GlcNAc(b1-2)Man(a1-6)]Man(b1-4)GlcNAc(b1-4)GlcNAc
# Procedure, shortened: as §1
# Gal(a1-3)GalNAc = target: Gal(a1-3)GalNAc
# Procedure, shortened: as §1
# [23] = target: Gal(a1-3)[Gal(a1-4)]Gal(b1-4)GlcNAc
# Procedure, shortened: as §1
# [24] = target: Gal(a1-4)Gal(b1-3)GlcNAc(b1-2)Man(a1-3)[Gal(a1-4)Gal(b1-3)GlcNAc(b1-2)Man(a1-6)]Man(b1-4)GlcNAc(b1-4)GlcNAc
# Procedure, shortened: as §1
# Gal(a1-4)Gal(b1-4)Glc = target: Gal(a1-4)Gal(b1-4)Glc
# Procedure, shortened: as §1
# Gal(a1-4)Gal(b1-4)GlcNAc = target: Gal(a1-4)Gal(b1-4)GlcNAc
# Procedure, shortened: as §1
# [25] = target: Gal(a1-4)Gal(b1-4)GlcNAc(b1-2)Man(a1-3)[Gal(a1-4)Gal(b1-4)GlcNAc(b1-2)Man(a1-6)]Man(b1-4)GlcNAc(b1-4)GlcNAc
# Procedure, shortened: as §1
# [26] = target: Gal(a1-4)Gal(b1-4)GlcNAc(b1-3)Gal(b1-4)Glc
# Procedure, shortened: as §1
# Gal(a1-4)GlcNAc = target: Gal(a1-4)GlcNAc
# Procedure, shortened: as §1
# Gal(a1-6)Glc = target: Gal(a1-6)Glc
# Procedure, shortened: as §1
# Gal(b1-2)Gal = target: Gal(b1-2)Gal
# Procedure, shortened: as §1
# Gal(b1-3)Gal = target: Gal(b1-3)Gal
# Procedure, shortened: as §1
# Gal(b1-3)Gal(b1-4)GlcNAc = target: Gal(b1-3)Gal(b1-4)GlcNAc
# Procedure, shortened: as §1
# [27] = target: Gal(b1-3)Gal(b1-4)GlcNAc(b1-2)Man(a1-3)[Gal(b1-3)Gal(b1-4)GlcNAc(b1-2)Man(a1-6)]Man(b1-4)GlcNAc(b1-4)GlcNAc
# Procedure, shortened: as §1
# Gal(b1-3)GalNAc = target: Gal(b1-3)GalNAc
# Procedure, shortened: as §1
# [28] = target: Gal(b1-3)GalNAc(a1-3)[Fuc(a1-2)]Gal(b1-4)Glc
# Procedure, shortened: as §1
binder,measurement,setting,value
GH98CBM51-1 (Streptococcus pneumoniae) (protein) MTYLSDMDWSSATHGDIDKTKTVQKDAPFTTGNKGEHTKISLLTSDDKVKYFDKGIGTVADSPSVISYDISGQGFEKFETYIGIDQSANSSRSDHAVVDRIEIEIDGKVVYSSSVTNPEGFRYNTQAQFISVTIPQNAKKISLKSFAGEHTWGDEVVFADAKLIKTVST,glycan array binding signal (z-score),[1],5.55
same,glycan array binding signal (z-score),[2],4.91
same,glycan array binding signal (z-score),[3],1.22
same,glycan array binding signal (z-score),[4],-0.192
same,glycan array binding signal (z-score),[5],-0.187
same,glycan array binding signal (z-score),Fuc(a1-3)GlcNAc,-0.192
same,glycan array binding signal (z-score),[6],-0.183
same,glycan array binding signal (z-score),[7],-0.192
same,glycan array binding signal (z-score),[8],-0.187
same,glycan array binding signal (z-score),[9],-0.189
same,glycan array binding signal (z-score),[10],-0.189
same,glycan array binding signal (z-score),[11],-0.183
same,glycan array binding signal (z-score),[12],-0.191
same,glycan array binding signal (z-score),[13],-0.188
same,glycan array binding signal (z-score),[14],-0.188
same,glycan array binding signal (z-score),[15],-0.186
same,glycan array binding signal (z-score),[16],-0.182
same,glycan array binding signal (z-score),[17],-0.19
same,glycan array binding signal (z-score),Fuc(a1-4)GlcNAc,-0.192
same,glycan array binding signal (z-score),Fuc(b1-3)GlcNAc,-0.193
same,glycan array binding signal (z-score),Gal(a1-2)Gal,-0.183
same,glycan array binding signal (z-score),Gal(a1-3)Gal,-0.188
same,glycan array binding signal (z-score),Gal(a1-3)Gal(b1-3)GlcNAc,-0.187
same,glycan array binding signal (z-score),[18],-0.171
same,glycan array binding signal (z-score),[19],-0.179
same,glycan array binding signal (z-score),Gal(a1-3)Gal(b1-4)Glc,-0.189
same,glycan array binding signal (z-score),Gal(a1-3)Gal(b1-4)GlcNAc,-0.194
same,glycan array binding signal (z-score),[20],-0.191
same,glycan array binding signal (z-score),[21],-0.186
same,glycan array binding signal (z-score),[22],-0.172
same,glycan array binding signal (z-score),Gal(a1-3)GalNAc,-0.188
same,glycan array binding signal (z-score),[23],-0.192
same,glycan array binding signal (z-score),[24],-0.181
same,glycan array binding signal (z-score),Gal(a1-4)Gal(b1-4)Glc,-0.186
same,glycan array binding signal (z-score),Gal(a1-4)Gal(b1-4)GlcNAc,-0.172
same,glycan array binding signal (z-score),[25],-0.182
same,glycan array binding signal (z-score),[26],-0.185
same,glycan array binding signal (z-score),Gal(a1-4)GlcNAc,-0.194
same,glycan array binding signal (z-score),Gal(a1-6)Glc,-0.186
same,glycan array binding signal (z-score),Gal(b1-2)Gal,-0.187
same,glycan array binding signal (z-score),Gal(b1-3)Gal,-0.181
same,glycan array binding signal (z-score),Gal(b1-3)Gal(b1-4)GlcNAc,-0.191
same,glycan array binding signal (z-score),[27],-0.183
same,glycan array binding signal (z-score),Gal(b1-3)GalNAc,-0.187
same,glycan array binding signal (z-score),[28],-0.191
